# Measured values taken from ChEMBL document CHEMBL4513135, “CO-ADD screening of IQOG CSIS (Spain) compounds”.
# “And” between values parts separate entries of the source, which are not always exact repeats. Identical values can stand only once. Some of the results follow. Results with a measured potency or affinity are listed apart.
# Tested on: Pseudomonas aeruginosa
# Conditions: Concentration 32 ug.mL-1, ASSAY_TEST Inhibition of Bacterial Growth, detection method Absorption (OD600), MEDIA CAMHB, plate type 384well, NBS, CORNING #3640, time 18 hr
Structure (SMILES),Inhibition,Inhibition (32 ug/mL)
COc1ccc2cc(C=O)c(Cl)nc2c1,-0.66%,
CCOC(=O)c1cc2cc(O)ccc2n1C(=O)OC(C)(C)C,-5.94%,
CCOC(=O)C1=C(C)OC(N)=C(C#N)C1c1ccc([N+](=O)[O-])cc1 (stereo unspecified),9.5%,
COc1ccc(C2c3ccc4ccccc4c3Oc3nc4c(c(N)c32)CCCC4)c(OC)c1 (stereo unspecified),13.22%,
COc1ccc(-c2cc(-c3cc4c(C)cc(C)cc4nc3Cl)cc(=O)[nH]2)cc1,-4.96%,
COc1cccc(C2c3c(ccc4ccccc34)OC(=NBr)C2(Br)C#N)c1 (stereo unspecified),14.81%,
N#CC1(Br)C(=N)Oc2ccc3ccccc3c2C1c1cccc([N+](=O)[O-])c1 (stereo unspecified),-21.49%,
N#CC1=C(N)Oc2c(ccc3ccccc23)C1c1ccc(O)cc1 (stereo unspecified),17.58%,
COc1ccc2c(c1)cc(/C=C/[N+](=O)[O-])n2C,34.75%,
CN(C)c1nc2nc3c(c(N)c2c(-c2ccccc2)c1C#N)CCCC3,15.18%,
O=C(COc1ccc2ccccc2c1)N/N=C/c1c[nH]c2ccccc12,27.77%,
CC1Cc2c(Cl)nc3nc4c(c(N)c3c2NC1=O)CCCC4 (stereo unspecified),28.48%,
CC(=NNC(N)=O)c1c[nH]c2ccccc12,4.99%,
C#CCNc1ncccn1,20.65%,
CCOC(=O)c1cc2cc(OCc3ccccc3)ccc2[nH]1,35.07%,
N#Cc1cc2c(N)c3c(nc2nc1Cl)CCN(Cc1ccccc1)C3,31.21%,
COC1(N)Oc2ccc3ccccc3c2C(c2ccccc2)C1(Br)C#N (stereo unspecified),-12.17%,
CCOC(=O)C1=C(C)OC(N)=C(C#N)C1c1ccccc1OC (stereo unspecified),21.47%,
N#CC1=C(Cl)Oc2c(ccc3ccccc23)C1c1ccccc1 (stereo unspecified),1.1%,
N#Cc1cccnc1Cl,8.4%,
N#CC1(Br)C(=NBr)Oc2ccc3ccccc3c2C1c1ccc([N+](=O)[O-])cc1 (stereo unspecified),-14.25%,
CC1CN(C)c2c(C#N)c(-c3ccccc3)c(C#N)c(=N)n21 (stereo unspecified),14.18%,

Structure (SMILES),Inhibition,Inhibition (32 ug/mL)
C#CCNc1nc(NCC#C)c(C#N)cc1C#N,8.28%,
N#CC1=C(N)Oc2ccc3ccccc3c2C1,17.02%,
N#Cc1c(Cl)nc(NC2CCN(Cc3ccccc3)CC2)c(C#N)c1-c1ccccc1,-11.42%,
N#Cc1cc(C#N)c(N2CCCCC2)nc1Cl,26.95%,
Cn1ccnc1C1c2ccc3cccnc3c2Oc2nc3c(c(N)c21)CCCCC3 (stereo unspecified),29.99%,
CC/C(C)=N/NC(=O)Cc1c[nH]c2ccccc12,25.13%,
CC(=O)C(=Cc1ccccc1)C(=O)O[C@H]1C[C@H](C)CC[C@H]1C(C)C,23.58%,
O=C1OC(c2ccccc2)=NC1=Cc1ccc([N+](=O)[O-])cc1,22.35%,
N#Cc1cccnc1N,25.87%,
O=C(O)c1c[nH]c2ccccc12,16.88%,
COC1=C(C#N)CCC(=O)N1,19.61%,
N#Cc1ccc(Br)cc1N,17.55%,
CCOC(=O)c1c[nH]c2ccc(OCc3ccccc3)cc12,29.84%,
C#CCN(C)Cc1cc2cc(OCc3ccc(OC)c4ncccc34)ccc2n1C,-1.13%,
COC(=O)C1(NC(=O)c2ccccc2)CC1c1ccccc1 (stereo unspecified),23.63%,
NNC(=O)Cc1c[nH]c2ccccc12,44.75%,
COc1ccc(CNNC(=O)c2cc3ccccc3[nH]2)cc1,18.02%,
O=C(N[C@H]1CC[C@@H](Br)[C@@H](Br)C1)C(F)(F)F,16.3%,
COc1ccc(-c2cc(-c3cc4ccc(F)cc4nc3Cl)cc(=O)[nH]2)cc1,-18.35%,
N#Cc1c(N)nc(S)c(C#N)c1-c1ccccc1,48.99%,
C#CCN(C)c1nc(NCC2CCN(Cc3ccccc3)CC2)c(C#N)c(-c2ccccc2)c1C#N,29.48%,
N#CC1=C(N)Oc2c(ccc3ccccc23)C1c1ccccc1 (stereo unspecified),22.69%,

Structure (SMILES),Inhibition,Inhibition (32 ug/mL)
C=CCNCc1cc2cc(OCCCC3CCN(Cc4ccccc4)CC3)ccc2[nH]1.O.O=C(O)C(=O)O.O=C(O)C(=O)O,-10.32%,
Nc1n[nH]c2c1C(c1ccccc1)CC(=O)N2 (stereo unspecified),9.77%,
CCOC(=O)c1c(C)nc2nc3c(c(N)c2c1-c1ccc(Cl)cc1)CCCCC3,-4.52%,
CN1C/C(=C\Cl)n2c1c(C#N)cc(C#N)c2=O,-43.15%,
Nc1c2c(nc3c1C(c1ccc([N+](=O)[O-])cc1)c1c(ccc4ccccc14)O3)CCCC2 (stereo unspecified),37.11%,
CCOC(=O)C1=C(C)Oc2nc3c(c(N)c2C1c1nccn1C)CCC3 (stereo unspecified),-2.17%,
O=C(Cc1ccccc1)N/N=C/c1c[nH]c2ccccc12,16.24%,
O=C(O)c1cc2ccccc2[nH]1 [INDOLE-2-CARBOXYLIC ACID],32.91%,
ClCCC1CCN(Cc2ccccc2)CC1,35.51%,
CC1=NC(=Cc2ccc([N+](=O)[O-])cc2)C(=O)O1,20.97%,
CC(=O)NC(=Cc1ccccc1)C(=O)O,31.01%,
Cc1ccc(S(=O)(=O)N[C@H]2CC[C@H](O)CC2)cc1,19.59%,
N#CC1=C(N)Oc2c(ccc3ccccc23)C1c1ccc(Cl)c(Cl)c1 (stereo unspecified),1.22%,
COc1ccc(C=C2N=C(SC)N(C)C2=O)cc1,-10.86%,
CC1=C(CO)C(c2ccc(C#N)cc2)C(C#N)=C(N)O1 (stereo unspecified),-3.49%,
COc1cc(C2CC2(N)C(=O)O)ccc1O (stereo unspecified),14.49%,
O=C(N/N=C/c1c[nH]c2ccccc12)c1cc2ccccc2[nH]1,38.1%,
N#Cc1cc(C#N)c(N2CCC(Cc3ccccc3)CC2)nc1N,-7.35%,
CC(=O)CC(=O)N1[C@@H]2C[C@H]3CCC2(CS1(=O)=O)C3(C)C,23.04%,
CN(C)c1cccc(C(=O)c2cccc(N(C)C)c2)c1,22.63%,
O=C1SC(SCc2ccccc2)=NC1=Cc1ccccc1,16.62%,
Cc1ccc(CNNC(N)=O)cc1.Cl,29.44%,

Structure (SMILES),Inhibition,Inhibition (32 ug/mL)
NNC(=O)c1c[nH]c2ccc(OCc3ccccc3)cc12,18.46%,
N#Cc1c(N)nc(NCCCCC2CCN(Cc3ccccc3)CC2)c(C#N)c1-c1ccccc1,35.54%,
N#Cc1c(N)nc(Cl)c(C#N)c1-c1ccccc1,10%,
O=C(O)C(=Cc1ccccc1)NC(=O)c1ccccc1,48.77%,
COC(=O)C(=Cc1ccc([N+](=O)[O-])cc1)NC(=O)c1ccccc1,19.19%,
COC(=O)C(C#N)=Cc1ccccc1,28.23%,
Nc1c2c(nc3c1C(c1ccc([N+](=O)[O-])cc1)c1ccc4ccccc4c1O3)CCCC2 (stereo unspecified),-5.68%,
C#CCNc1ncc(C#N)c(N)n1,21.34%,
Cn1ccnc1C1c2ccc3cccnc3c2Oc2nc3c(c(N)c21)CCC3 (stereo unspecified),-13.87%,
CN(C)c1nc(N)c(C#N)cc1C#N.Cl,,7.25% and -1.22%
COc1ccc(/C=C2/N=C(c3ccccc3)OC2=O)cc1OC,-24.25%,
COc1nc(NC(C)=O)c(C#N)c(-c2ccccc2)c1C#N,33.32%,
COc1ccc(C2C(C#N)=C(N)Oc3c2ccc2ccccc32)c(OC)c1 (stereo unspecified),24.98%,
C#CCNc1nc(NC2CCN(Cc3ccccc3)CC2)c(C#N)cc1C#N.Cl,-3.29%,
CC(C)NNC(=O)Cc1c[nH]c2ccccc12,53.17%,
O=C(Cc1c[nH]c2ccccc12)NNCc1ccccc1,23.11%,
COc1cc(C2c3c(nc4c(c3N)CCCC4)Oc3ccc4ccccc4c32)cc(OC)c1OC (stereo unspecified),45.09%,
C#CCNc1nc(NCCCCC2CCN(Cc3ccccc3)CC2)c(C#N)cc1C#N,-5.56%,
c1ccc(-c2nc3c4cnn(-c5ccccc5)c4ncn3n2)cc1,22.37%,
Cl.NNN1CCc2ccccc21,34.79%,
CC(C)(C)OC(=O)Nc1ccccn1,18.78%,
C#CCN(C)Cc1cc2cc(OCc3ccccc3)ccc2n1C.O=C(O)C(=O)O,12.92%,

Structure (SMILES),Inhibition,Inhibition (32 ug/mL)
COc1nc2ccccc2cc1C=O,-2.75%,
C#CCN(C)c1nc(N(C)CC#C)c(C#N)cc1C#N,12.11%,
COc1ccc2nc(Cl)c(C=O)cc2c1,,-3.35% and -1.97%
COC(=O)C(=Cc1ccc(OC)cc1)NC(=O)c1ccccc1,29.17%,
COC(=O)/C(=C/c1ccc(O)cc1)NC(=O)c1ccccc1,11.52%,
Cc1cc(Br)cc(C)c1NC=C(C#N)C#N,4.53%,
CCOc1nc(N)c(C#N)c(-c2ccccc2)c1C#N,-7.53%,
Cc1nc(Nc2ccccc2)c2cnn(-c3ccccc3)c2n1,28.22%,
CNC(=O)c1c(Cl)c2cc(OCc3ccccc3)ccc2n1C,34.06%,
CCOC(=O)C1=C(C)NC(N)=C(C#N)C1c1ccc([N+](=O)[O-])cc1 (stereo unspecified),8.94%,
CC1(C)OS(=O)(=O)C2=C1NC(N)=C(C#N)C2c1ccccc1 (stereo unspecified),32.54%,
C#CCN(C)c1nc(NC2CCN(Cc3ccccc3)CC2)c(C#N)c(-c2ccccc2)c1C#N,4.69%,
COc1cccc(C2C(C#N)=C(N)Oc3ccc4ccccc4c32)c1 (stereo unspecified),13.23%,
CC#CCN.Cl,5.95%,
C#CCN(Cc1ccccc1)c1nc(N)c(C#N)c(-c2ccccc2)c1C#N,4.27%,
N#CC1(Br)C(=NBr)Oc2ccc3ccccc3c2C1c1ccccc1[N+](=O)[O-] (stereo unspecified),4.43%,
CCCCCCC(C)NNC(=O)c1cc2ccccc2[nH]1 (stereo unspecified),-20.27%,
N#Cc1c(N)nc2[nH]nc(N)c2c1-c1ccccc1,14.3%,
